# In article PMC10668032:
# Some of the results follow. At the low end of the ranking the order means little.
# Target: SIX1 homeodomain (reference allele) (UniProt Q15475)
# Assay: universal protein binding microarray
# Conditions: Universal all-10-mer PBM (8x60K, AMADID 030236), 300 nM GST-tagged protein, Alexa Fluor 488 anti-GST; buffer, salt, pH and temperature not stated; high values mean tight binding; most listed sequences are background and not binding sites; double strand, one strand shown
row,Sequence,binding signal [E-score]
1,TCTTGCCA,-0.0906
2,AGTGATGG,-0.157
3,ATCGTTTA,0.117
4,AATCCCCC,0.261
5,AATTATGA,-0.0408
6,CGCCTAGC,-0.124
7,CCATGTCG,-0.0364
8,AATAGATC,0.305
9,AGCATAGA,-0.0509
10,GGTCAGAA,-0.245
11,ACGGGCCT,-0.0877
12,CATAAGGG,-0.0763
13,TCATCTCA,0.298
14,AGTGCATC,0.00602
15,TGCATGCA,-0.142
16,AGGTGGTA,0.138
17,ACCGCCTA,0.0495
18,ACGTCAGG,-0.232
19,AGTATCCG,0.396
20,ATCACTGC,0.317
21,TGCAGAAA,-0.172
22,GGGTGATA,0.46
23,AGAGCCGG,-0.105
24,CGAACTCC,-0.12
25,AACGCAGA,0.0282

row,Sequence,binding signal [E-score]
1,AAGTAAGC,-0.217
2,CGGGTTAG,-0.07
3,ATACACCG,0.398
4,AGAAGTCC,-0.243
5,ATTGTTAA,-0.169
6,TACCTCTA,0.204
7,CGAATCAG,-0.103
8,AGAGCTGA,0.0219
9,CTTAAGCA,-0.165
10,CACTAACG,-0.166
11,ATTTTTAA,-0.125
12,ACCTTACA,-0.118
13,GTTTAAAC,-0.108
14,AACCTACT,-0.111
15,GTAACCAA,-0.000845
16,CAGGGGAC,-0.0214
17,ATCTGTGG,0.0795
18,AACTATTC,-0.204
19,CGCTCTCA,-0.0452
20,ACGGGCAC,-0.00462
21,CAGCCTGC,-0.107
22,CCTCCGCC,0.0994
23,AGCTTGTC,-0.133
24,CTACGAGA,0.0723
25,GGATCGGA,0.38

row,Sequence,binding signal [E-score]
1,AGCCAGCC,-0.204
2,GCTGAAAA,-0.0746
3,CTTTGGCA,-0.139
4,ATCCCGCA,0.158
5,AACGACAA,-0.14
6,GCCGAAGA,-0.257
7,CGCCTTCC,-0.281
8,ATAAGAAA,-0.0103
9,AATACGTA,0.237
10,CTCGTCAC,-0.0969
11,CCAAACTA,-0.041
12,CTTTCCAC,-0.0399
13,GCGATCCA,0.345
14,CCGTGTTA,-0.00292
15,GTCGAGAA,-0.179
16,AGTATTTG,-0.0508
17,ATGAATAG,0.0136
18,GTGAGAAC,0.0921
19,ATTCTCTG,-0.207
20,GACTTGAC,-0.255
21,AACGCCTA,-0.209
22,ATCACGCA,0.203
23,AATGATTG,-0.168
24,AACTTCGC,-0.236
25,CCTCGCGA,-0.0767

row,Sequence,binding signal [E-score]
1,GAGAACAC,0.141
2,CTTAATGA,-0.0702
3,CATCTCGC,-0.00651
4,ATACTGCC,0.313
5,TGTATACA,0.319
6,CTAATGGC,-0.212
7,CCAGCGAG,-0.048
8,ACACCCGA,0.294
9,TAATTGTA,-0.21
10,CCCAACAG,-0.0273
11,CCCGTAGA,-0.00396
12,AGCGTAAC,-0.319
13,TCGCCACA,-0.135
14,CCCAATAA,-0.122
15,GCCGCGAC,-0.0148
16,ACAACACA,-0.216
17,CCCTTTGC,0.00697
18,CGGCTTTC,-0.27
19,AAGGGAGG,-0.158
20,ACGTGCTC,-0.015
21,CGTATCGA,0.398
22,GAGCGGGA,-0.0493
23,AGGAAAGA,-0.212
24,ATATTCCG,0.183
25,GGGGGGGA,-0.00511

row,Sequence,binding signal [E-score]
1,AGCAAAAA,-0.287
2,CGGCGGAA,-0.148
3,ATTAGGAA,-0.0226
4,CAAAGCTG,-0.1
5,ATGCCTGC,0.0586
6,GAAAAAGC,-0.213
7,ACGCGAGC,-0.169
8,ACCGCCAG,-0.0393
9,CTTCAAAC,-0.207
10,ATCAACTC,0.23
11,ACGCGAAG,-0.246
12,AATGGTGC,-0.00096
13,AATGGATC,0.35
14,CGCCTATA,0.178
15,ATAATACC,0.421
16,ACTACCCA,-0.0174
17,CTCCCCGC,0.15
18,TCGGCTAA,-0.06
19,ATCGGCAT,0.205
20,AGGAGGGG,0.0173
21,CCTGCCAC,-0.136
22,CATAATAC,0.34
23,CTGCGTTC,-0.182
24,AGCACGCC,-0.193
25,CGTCAACG,-0.173

row,Sequence,binding signal [E-score]
1,ACCCCACA,0.15
2,CCCTCAGA,-0.0118
3,CCAGTCCG,-0.146
4,ACTGCAAT,-0.146
5,CAACGCGG,-0.226
6,GCGGTGAC,-0.17
7,TAAATACA,0.0859
8,CCTCCGGC,0.123
9,GAGTTGCC,-0.161
10,AGCAGACA,-0.00281
11,AAGCCGGT,-0.142
12,CTTACGCA,-0.25
13,CCGCTAAG,0.0528
14,CAAGAATA,0.104
15,CACCTTCG,0.0539
16,GCAGTTGA,0.0443
17,ACGGTGGG,-0.0615
18,ATGCGGCC,-0.091
19,AATAGTCC,-0.0812
20,CTGTATCA,0.418
21,CTACAGGA,-0.0807
22,CCTAATGA,0.0182
23,AATGTGTA,-0.076
24,GGAGTTAA,-0.102
25,AAATTGCC,-0.0329

row,Sequence,binding signal [E-score]
1,ATAGACTA,0.0286
2,CTCCCAGC,-0.12
3,CCCCGTTC,0.0485
4,ACGACCAA,-0.0689
5,AATTTTCC,-0.0716
6,CGAATTAA,-0.128
7,CTCGCACC,-0.0623
8,AGATGGGA,0.131
9,ACGTGGCT,-0.209
10,CCCTTCAG,-0.0951
11,CAGATGCA,-0.236
12,CAAAAATA,0.0414
13,ATAGCCCA,0.138
14,GGTAATGA,-0.0417
15,GGAAGAGA,-0.00443
16,GAAACCTC,0.0947
17,GCAAATGC,-0.33
18,ACTAAGGG,0.0359
19,GTATTTGA,0.117
20,CCATTAAC,-0.17
21,AGTTCTTG,-0.139
22,ATGCGATC,0.309
23,AGTGAAAC,0.0562
24,TCAAGCGA,-0.0338
25,CGTGGTCA,-0.188

row,Sequence,binding signal [E-score]
1,ACCCAGTC,-0.131
2,ACCGGCTA,0.099
3,CGAAGCTA,-0.0395
4,TATATATA,0.344
5,TGTTGTAA,-0.197
6,CAAGAGAG,-0.145
7,CGTTACTA,-0.156
8,GCTTTGTA,-0.126
9,AAGCCAAC,-0.0595
10,CATGACTA,-0.00197
11,ATCTTTGA,0.0646
12,CGTGTTCA,-0.0359
13,AGGAACTG,-0.371
14,AGGTTAAA,-0.0905
15,AGTCGGTG,-0.0306
16,CTCATTGC,-0.147
17,AACTGACA,-0.081
18,GGCATGGA,-0.0387
19,GTAGGGGA,0.0833
20,CTAACCCC,0.207
21,GCGAGACA,-0.0353
22,TACCTGGA,0.162
23,AGAGAACT,-0.0491
24,ATCTAGGG,0.187
25,CTCCTATA,0.0205

row,Sequence,binding signal [E-score]
1,AAGCATCT,-0.124
2,ATGGGAGG,0.0284
3,ACAAGAGA,0.0171
4,ACACCTGG,0.172
5,AATTATTC,-0.242
6,TAGACCGA,0.0385
7,CAAGCATA,0.00112
8,CAGCCGGA,0.168
9,CCATCCAG,-0.00847
10,TATGAAAA,0.1
11,CACCATAG,0.0397
12,GAAACACA,-0.113
13,GATACAGA,0.268
14,ACATCGCC,-0.299
15,CATTAATG,-0.0256
16,CGCACCCC,-0.0445
17,CAAAGGCC,-0.281
18,AGGCGCCC,-0.23
19,AACAGCGC,-0.109
